Here are results for 65 sequences from PMC5892938.

The list shows a part of the results. Construct or isoform of the protein are uncertain.

This assay deals with GST-SBP-ILF3 (Homo sapiens) (UniProt Q12906). The experiment in a line: targeted RNA Bind-n-Seq. The following applies: RBNS binding buffer: 25 mM Tris pH 7.5, 150 mM KCl, 3 mM MgCl2, 0.1% Tween, 0.5 mg/mL BSA, 1 mM DTT; 27 nM protein, 750 pM RNA pool; temperature not stated; high values mean tight binding; sequences stand for … in GGGUAAAAGCGAGGUGAA…CGGGACAAGUAUUAUGGG
In the case of “UUUUUUUUUUGAGACCGAGGCGGUCUCCAG [tttttgagapaired]”, the binding signal (log2 fold change) turned out to be 0.356. Under “UUUUUUUUUUGAGACGGUUUCUGUCUUCUA [tttttgagapaired]” stands 0.241; under “GUUGUGUGUGUUGGUGCCUAACACACGCAG [gtspaired]”, -0.6. Under “UUUUUUUUUUGAGAUGGUAGCCAUCUCCUG [tttttgagapaired]” stands 0.533. The figure for “UUUUUUUUUUGAGAUGGAACCCAUCUCCUA [tttttgagapaired]” is 0.241. “UUUUUUUUUUGAGAGGGGGUCCUUCUCCGG [tttttgagapaired]”: the binding signal (log2 fold change) is 0.868. Take “UUUUUUUUUUGAGAGUGAGGCACUCUUCUA [tttttgagapaired]”: the binding signal (log2 fold change) is 0.0598. Under “GUGGUGUGUGUUGGUACCUAACACACAUCA [gtspaired]” stands -0.135; under “UUUUUUUUUUGAGAACGAUACGUUCUCCGG [tttttgagapaired]”, 0.0447. The figure for “GUGGUUGGUGUUGGAGUCUAACACCGACCG [gtspaired]” is -0.467; for “GUGGUGUGUGUUGGCUUCUAACACACAUCA [gtspaired]” it is -0.366; for “UUUUUUUUUUGAGAGCGUCACGCUCUCCAG [tttttgagapaired]” it is 0.787. Turning to “UUUUUUUUUUGAGACUGUUUCAGUCUCCUG [tttttgagapaired]”, the binding signal (log2 fold change) came to 0.192. For the sequence “UUUUUUUUUUGAGAGGGCGUCCCUCUCCGG [tttttgagapaired]”, the binding signal (log2 fold change) came to 0.871. For the sequence “GUGUGGUGUGUUGGUCUCUAACACAUCGCG [gtspaired]”, the binding signal (log2 fold change) was -0.786. Under “UUUUUUUUUUGAGAUGGAGUCCAUCUUCUA [tttttgagapaired]” stands 0.208; under “GUGUGGUGUGUUGGAAUCUAACACAUCACA [gtspaired]”, -0.995. The figure for “GGUUGGUGUGUUGGCUCCUAACACAUCAGC [gtspaired]” is -0.927; for “GUGUGGUGUGUUGGCCCCUAACACACUACG [gtspaired]” it is -0.144; for “UUUUUUUUUUGAGAUCGAUACGAUCUUCUA [tttttgagapaired]” it is -0.0587. Consider “GGUGUUGGUGUUGGCAUCUAACACCGACGC [gtspaired]”, for which the binding signal (log2 fold change) was -0.422. The figure for “GGUUGGUGUGUUGGCCCCUAACACAUCGAC [gtspaired]” is 0.0785; for “GUGGUUGGUGUUGGCACCUAACACCGACUA [gtspaired]” it is -0.558; for “UUUUUUUUUUGAGACUGGUACAGUUUCCAG [tttttgagapaired]” it is 0.701. Under “UUUUUUUUUUGAGACCGGGGCGGUCUCCAG [tttttgagapaired]” stands 0.344; under “GUUGUGUGUGUUGGACUCUAACACACGCAA [gtspaired]”, -0.557; under “UUUUUUUUUUGAGAGCGAACCGUUCUCCAG [tttttgagapaired]”, 0.456.

In the case of “UUUUUUUUUUGAGAUGGAAACCAUCUCCUG [tttttgagapaired]”, the binding signal (log2 fold change) was 0.224. “UUUUUUUUUUGAGACGGAGGCUGUCUCCUG [tttttgagapaired]”: the binding signal (log2 fold change) was found to be 1.11. For the sequence “UUUUUUUUUUGAGAGGGCUACCCUCUCCAG [tttttgagapaired]”, the binding signal (log2 fold change) was found to be 0.453. As to “UUUUUUUUUUGAGAUGGUAACUAUCUCCAG [tttttgagapaired]”, the binding signal (log2 fold change) is 0.343. With “GUUGUGUGUGUUGGAGUCUAACACACACAG [gtspaired]”, the binding signal (log2 fold change) is -0.559. On to “UUUUUUUUUUGAGAGCGGGCCGCUCUCCUA [tttttgagapaired]”, for which the binding signal (log2 fold change) worked out at 0.596.

Regarding “UUUUUUUUUUGAGAUGGCAUCCAUCUCCUG [tttttgagapaired]”, the binding signal (log2 fold change) is 0.341. Under “UUUUUUUUUUGAGAUGGUAUCCAUCUCCUG [tttttgagapaired]” stands 0.233; under “UUUUUUUUUUGAGAGCGUAGCGCUCUCCAG [tttttgagapaired]”, 0.171; under “UUUUUUUUUUGAGAUGGUAACCAUCUCCUG [tttttgagapaired]”, 0.388.

Take “UUUUUUUUUUGAGAGCGUGUCGUUCUCCAG [tttttgagapaired]”: the binding signal (log2 fold change) amounted to 0.549.

“UUUUUUUUUUGAGAGCGAAUCGUUCUUCUA [tttttgagapaired]”: the binding signal (log2 fold change) is -0.119.

“UUUUUUUUUUGAGACGGGGGCCGUCUCCAG [tttttgagapaired]”: the binding signal (log2 fold change) was 0.776. The figure for “GUGUGGUGUGUUGGUCCCUAACACACCGCA [gtspaired]” is -0.747. The figure for “UUUUUUUUUUGAGACGGUAGCCGUCUUCUA [tttttgagapaired]” is 0.603; for “UUUUUUUUUUGAGACGGUAUCCGUCUUCUG [tttttgagapaired]” it is 0.546; for “GUGUGUUGUGUUGGCCCCUAACACAACACG [gtspaired]” it is -0.107. Under “UUUUUUUUUUGAGAGCGUACCGCUCUCCAG [tttttgagapaired]” stands 0.405. Turning to “UUUUUUUUUUGAGAUGGGGUCCAUCUCCAG [tttttgagapaired]”, the binding signal (log2 fold change) is 0.433.

Regarding “UUUUUUUUUUGAGAACGAAUCGUUCUCCGG [tttttgagapaired]”, the binding signal (log2 fold change) is -0.156.

As for “GUGUGGUGUGUUGGCGUCUAACACAUCACA [gtspaired]”, the binding signal (log2 fold change) is -0.609. Under “GUGGUGUGUGUUGGUCUCUAACACACAUCA [gtspaired]” stands -0.561. Under “GGUUGGUGUGUUGGUCCCUAACACAUCAAC [gtspaired]” stands -0.613.

Take “UUUUUUUUUUGAGAUCGAGACGGUCUCCUA [tttttgagapaired]”: the binding signal (log2 fold change) amounted to 0.309. “UUUUUUUUUUGAGAGGGGACCCCUUUCCGG [tttttgagapaired]”: the binding signal (log2 fold change) came to 0.365.

As to “UUUUUUUUUUGAGACUGAGUCAGUCUUCUG [tttttgagapaired]”, the binding signal (log2 fold change) was 0.284. For “UUUUUUUUUUGAGAGCGUAGCGCUCUUCUG [tttttgagapaired]”, the binding signal (log2 fold change) came to 0.265. Under “UUUUUUUUUUGAGAGGGCGGCCCUCUCCUG [tttttgagapaired]” stands 1.29; under “UUUUUUUUUUGAGAGCGAAGCGCUCUCCAG [tttttgagapaired]”, 0.543. The figure for “GUGGUUGGUGUUGGUUCCUAACACCAGCCG [gtspaired]” is -0.799; for “UUUUUUUUUUGAGAUGGGUGCUAUCUCCAG [tttttgagapaired]” it is 0.694; for “UUUUUUUUUUGAGACGGCUGCCGUUUCCUA [tttttgagapaired]” it is 0.619. The figure for “GUGGUGUGUGUUGGCACCUAACACACGCCA [gtspaired]” is -0.532. For “GUGUGUUGUGUUGGUCUCUAACACAACGCG [gtspaired]”, the binding signal (log2 fold change) was -0.673. Under “UUCUCUCUUCCUCCUGAGGAGGAGGGGAGA [ctspaired]” stands -0.00227. Under “UUUUUUUUUUGAGACGGAAACCGUCUCCUG [tttttgagapaired]” stands 0.336; under “UUUUUUUUUUGAGAGCGAUGCGUUCUUCUA [tttttgagapaired]”, 0.434.

On to “UUUUUUUUUUGAGAGGGGAACCCUCUUCUA [tttttgagapaired]”, for which the binding signal (log2 fold change) was -0.226.
